The assay concerns the target human SIRPA on human macrophages (primary monocyte-derived macrophages; U937 line) (human) (UniProt P78324). Briefly: cell-based or functional assay.
UniProt P78324, sequence (P78324 31-504): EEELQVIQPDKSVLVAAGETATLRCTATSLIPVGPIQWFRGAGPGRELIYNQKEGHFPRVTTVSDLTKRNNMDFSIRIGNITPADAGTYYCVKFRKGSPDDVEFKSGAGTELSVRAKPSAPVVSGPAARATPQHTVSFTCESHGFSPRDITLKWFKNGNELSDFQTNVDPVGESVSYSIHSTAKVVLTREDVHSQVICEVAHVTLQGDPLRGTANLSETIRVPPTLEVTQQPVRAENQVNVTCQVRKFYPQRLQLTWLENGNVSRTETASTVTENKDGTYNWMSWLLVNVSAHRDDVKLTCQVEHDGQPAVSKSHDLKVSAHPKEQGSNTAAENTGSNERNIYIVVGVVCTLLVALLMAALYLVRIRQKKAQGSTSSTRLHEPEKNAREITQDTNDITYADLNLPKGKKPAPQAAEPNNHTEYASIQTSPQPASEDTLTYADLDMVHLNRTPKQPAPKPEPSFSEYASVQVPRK

B1: anti-SIRPA antibody KWAR23 (antibody, from another filing)
light: QIVLTQSPAIMSASPGEKVTLTCSASSSVSSSYLYWYQQKPGSSPKLWIYSTSNLASGVPARFSGSGSGTSYSLTISSMEAEDAASYFCHQWSSYPRTFGAGTKLELKRTVAAPSVFIFPPSDEQLKSGTASVVCLLNNFYPREAKVQWKVDNALQSGNSQESVTEQDSKDSTYSLSSTLTLSKADYEKHKVYACEVTHQGLSSPVTKSFNRGEC
heavy: EVQLQQSGAELVKPGASVKLSCTASGFNIKDYYIHWVQQRTEQGLEWIGRIDPEDGETKYAPKFQDKATITADTSSNTAYLHLSSLTSEDTAVYYCARWGAYWGQGTLVTVSS[human IgG1 constant region left out]
As for B1, the EC50 (nM), phagocytosis of A375 cells by primary human macrophages amounted to 0.363 nM; the Max, fold increase in phagocytosis over baseline activity came to 1.13 fold; the SIRPA IC50 (nM), downregulation on U937 cells came out at 15.5 nM; the SIRPA Max % DR, U937 cells worked out at 9%.

Source of the values: patent publication US20240301071A1.
